Experimental data as given in patent US20240294594A1 (CYTUNE PHARMA, published 2024).
Residue numbers refer to the chain shown, from its start. Numbers in names are those of the source.

B1: hCl1a IE-RLI DANA (other)
heavy 1: QVQLVQSGAEVKKPGASVKVSCKASGYTFTDYAMHWVRQAPGQRLEWMGWINTYTGKPTYAQKFQGRVTITRDTSASTAYMELSSLRSEDTAVYYCARAVFYGYTMDAWGQGTLVTVSSASTKGPSVFPLAPSSKSTSGGTAALGCLVKDYFPEPVTVSWNSGALTSGVHTFPAVLQSSGLYSLSSVVTVPSSSLGTQTYICNVNHKPSNTKVDKKVEPKSCDKTHTCPPCPAPELLGGPSVFLFPPKPKDTLMISRTPEVTCVVIDVSHEDPEVKFNWYVDGVEVHNAKTKPREEQYNSTYRVVSVLTVLHQDWLNGKEYKCKVSNKALPAPEEKTISKAKGQPREPQVYTLPPSRDELTKNQVSLWCLVKGFYPSDIAVEWESNGQPENNYKTTPPVLDSDGSFFLYSKLTVDKSRWQQGNVFSCSVMHEALHNHYTQKSLSLSPGITCPPPMSVEHADIWVKSYSLYSRERYICNSGFKRKAGTSSLTECVLNKATNVAHWTTPSLKCIRDPALVHQRPAPPSGGSGGGGSGGGSGGGGSGGNWVNVISDLKKIEDLIQSMHIDATLYTESDVHPSCKVTAMKCFLLELQVISLESGDASIHATVEALIILANNSLSSNAQVTESGCKECEELEEKNIKEFLQSFVHIVQMFINTS
heavy 2: QVQLVQSGAEVKKPGASVKVSCKASGYTFTDYAMHWVRQAPGQRLEWMGWINTYTGKPTYAQKFQGRVTITRDTSASTAYMELSSLRSEDTAVYYCARAVFYGYTMDAWGQGTLVTVSSASTKGPSVFPLAPSSKSTSGGTAALGCLVKDYFPEPVTVSWNSGALTSGVHTFPAVLQSSGLYSLSSVVTVPSSSLGTQTYICNVNHKPSNTKVDKKV[not shown - human IgG1 Fc with V264I I332E T366S L368A Y407V (EU numbers)]
light: DIQMTQSPSSLSASVGDRVTITCRASEDIYSNLAWYQQKPGKAPKLLIFSVKRLQDGVPSRFSGSGSGTDFTLTISSLQPEDFATYYCLQGSNFPLTFGQGTKVEIKRTVAAPSVFIFPPSDEQLKSGTASVVCLLNNFYPREAKVQWKVDNALQSGNSQESVTEQDSKDSTYSLSSTLTLSKADYEKHKVYACEVTHQGLSSPVTKSFNRGEC
notes: Immunocytokine
B2: hCl1a TL-RLI DANA (other)
heavy 1: B1 heavy 1 with I266V, E334I, K394T, P398L
heavy 2: QVQLVQSGAEVKKPGASVKVSCKASGYTFTDYAMHWVRQAPGQRLEWMGWINTYTGKPTYAQKFQGRVTITRDTSASTAYMELSSLRSEDTAVYYCARAVFYGYTMDAWGQGTLVTVSSASTKGPSVFPLAPSSKSTSGGTAALGCLVKDYFPEPVTVSWNSGALTSGVHTFPAVLQSSGLYSLSSVVTVPSSSLGTQTYICNVNHKPSNTKVDKKV[not shown - human IgG1 Fc with T366S L368A K392T P396L Y407V (EU numbers)]
light: B1 light
notes: Immunocytokine
B3: PEM-RLI NA x1 (other)
heavy 1: QVQLVQSGVEVKKPGASVKVSCKASGYTFTNYYMYWVRQAPGQGLEWMGGINPSNGGTNFNEKFKNRVTLTTDSSTTTAYMELKSLQFDDTAVYYCARRDYRFDMGFDYWGQGTTVTVSSASTKGPSVFPLAPCSRSTSESTAALGCLVKDYFPEPVTVSWNSGALTSGVHTFPAVLQSSGLYSLSSVVTVPSSSLGTKTYTCNVDHKPSNTKVDKRV[not shown - human IgG4 Fc with S228P T366W (EU numbers)]ITCPPPMSVEHADIWVKSYSLYSRERYICNSGFKRKAGTSSLTECVLNKATNVAHWTTPSLKCIRDPALVHQRPAPPSGGSGGGGSGGGSGGGGSGGNWVNVISDLKKIEDLIQSMHIDATLYTESDVHPSCKVTAMKCFLLELQVISLESGDASIHDTVEALIILANNSLSSNAQVTESGCKECEELEEKNIKEFLQSFVHIVQMFINTS
heavy 2: QVQLVQSGVEVKKPGASVKVSCKASGYTFTNYYMYWVRQAPGQGLEWMGGINPSNGGTNFNEKFKNRVTLTTDSSTTTAYMELKSLQFDDTAVYYCARRDYRFDMGFDYWGQGTTVTVSSASTKGPSVFPLAPCSRSTSESTAALGCLVKDYFPEPVTVSWNSGALTSGVHTFPAVLQSSGLYSLSSVVTVPSSSLGTKTYTCNVDHKPSNTKVDKRVESKYGPPCPPCPAPEFLGGPSVFLFPPKPKDTLMISRTPEVTCVVVDVSQEDPEVQFNWYVDGVEVHNAKTKPREEQFNSTYRVVSVLTVLHQDWLNGKEYKCKVSNKGLPSSIEKTISKAKGQPREPQVYTLPPSQEEMTKNQVSLSCAVKGFYPSDIAVEWESNGQPENNYKTTPPVLDSDGSFFLVSRLTVDKSRWQEGNVFSCSVMHEALHNHYTQKSLSLSLG
light: EIVLTQSPATLSLSPGERATLSCRASKGVSTSGYSYLHWYQQKPGQAPRLLIYLASYLESGVPARFSGSGSGTDFTLTISSLEPEDFAVYYCQHSRDLPLTFGGGTKVEIKRTVAAPSVFIFPPSDEQLKSGTASVVCLLNNFYPREAKVQWKVDNALQSGNSQESVTEQDSKDSTYSLSSTLTLSKADYEKHKVYACEVTHQGLSSPVTKSFNRGEC
B4: SOT201 (other)
heavy 1: QVQLVQSGVEVKKPGASVKVSCKASGYTFTNYYMYWVRQAPGQGLEWMGGINPSNGGTNFNEKFKNRVTLTTDSSTTTAYMELKSLQFDDTAVYYCARRDYRFDMGFDYWGQGTTVTVSSASTKGPSVFPLAPCSRSTSESTAALGCLVKDYFPEPVTVSWNSGALTSGVHTFPAVLQSSGLYSLSSVVTVPSSSLGTKTYTCNVDHKPSNTKVDKRV[not shown - human IgG4 Fc with S228P L235E T366W (EU numbers)]ITCPPPMSVEHADIWVKSYSLYSRERYICNSGFKRKAGTSSLTECVLNKATNVAHWTTPSLKCIRDPALVHQRPAPPSGGSGGGGSGGGSGGGGSGGNWVNVISDLKKIEDLIQSMHIDATLYTESDVHPSCKVTAMKCFLLELQVISLESGDASIHDTVEALIILANNSLSSNAQVTESGCKECEELEEKNIKEFLQSFVHIVQMFINTS
heavy 2: B3 heavy 2 with L235E
light: B3 light
notes: Heterodimeric immunocytokine derived from IgG4 pembrolizumab (KiH, L235E, dK) with RLI-15AQA on the knob heavy chain; also called PEM L-RLI NA x1; PEM-RLI-15AQA
B5: PEM-RLI NQD x1 (other)
heavy 1: QVQLVQSGVEVKKPGASVKVSCKASGYTFTNYYMYWVRQAPGQGLEWMGGINPSNGGTNFNEKFKNRVTLTTDSSTTTAYMELKSLQFDDTAVYYCARRDYRFDMGFDYWGQGTTVTVSSASTKGPSVFPLAPCSRSTSESTAALGCLVKDYFPEPVTVSWNSGALTSGVHTFPAVLQSSGLYSLSSVVTVPSSSLGTKTYTCNVDHKPSNTKVDKRV[not shown - human IgG4 Fc with S228P T366W (EU numbers)]ITCPPPMSVEHADIWVKSYSLYSRERYICNSGFKRKAGTSSLTECVLNKATNVAHWTTPSLKCIRDPALVHQRPAPPSGGSGGGGSGGGSGGGGSGGNWVNVISDLKKIEDLIQSMHIDATLYTESNVHPSCKVTAMKCFLLELQVISLESGDASIHDTVQDLIILANNSLSSNAQVTESGCKECEELEEKNIKEFLQSFVHIVQMFINTS
heavy 2: B3 heavy 2
light: B3 light

Experiments:
[1] = molecular target: T1, FcγRIIIa V158 (human, UniProt P08637 fragment, limits assumed); experiment: SPR (Biacore 8K), ratio of 1/Kd values
T1 construct: also called hFcγRIIIaV158; CD16a V158
Protocol: (§1) SPR experiments were performed on a Biacore 8K (Cytiva, Chicago, IL, USA), using CM5 sensor chips (Cytiva) with an immobilization using THE His tag antibodies (Genscript). FcγRIIIa V158, FcγRIIIa F158 or FcγRIIb protein were used for capture with a contact time of 30 sec at a flow rate of […] in a 1×HBS-EP+ running buffer. Association/dissociation rates were measured for each tested immunocytokine at a flow rate of 30 μl/min with concentration serial dilution in a suitable range with an association time/dissociation time of 300 s/300 s except for constructs with DLE and DE with and without afucosylation, where association/dissociation time of 120 s/1200 s was applied.

[2] = molecular target: T2, FcγRIIIa F158 (human, UniProt P08637 fragment, limits assumed); experiment: SPR (Biacore 8K), ratio of 1/Kd values
T2 construct: also called hFcγRIIIaF158; CD16a F158
Protocol: as §1

[3] = molecular target: T3, FcγRIIb (UniProt P31994 46-217, limits assumed); experiment: SPR (Biacore 8K), receptor captured via anti-His antibody
T3 construct: also called FcgRIIb
T3 sequence (looked up): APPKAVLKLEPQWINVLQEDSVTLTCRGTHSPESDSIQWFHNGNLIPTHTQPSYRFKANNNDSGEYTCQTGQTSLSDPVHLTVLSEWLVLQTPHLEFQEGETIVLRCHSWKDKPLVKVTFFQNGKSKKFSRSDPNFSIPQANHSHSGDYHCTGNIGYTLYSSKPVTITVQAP
Protocol: as §1

[4] = molecular target: T1, FcγRIIIa V158; experiment: as above
T1 sequence (P08637 17-208 F176V limits assumed): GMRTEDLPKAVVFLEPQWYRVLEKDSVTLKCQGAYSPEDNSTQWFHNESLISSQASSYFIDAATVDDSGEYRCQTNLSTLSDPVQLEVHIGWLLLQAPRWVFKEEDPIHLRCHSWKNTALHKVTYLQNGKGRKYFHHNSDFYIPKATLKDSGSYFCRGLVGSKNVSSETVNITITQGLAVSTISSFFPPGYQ
Protocol: as §1

[5] = molecular target: T2, FcγRIIIa F158; experiment: as above
T2 sequence (P08637 17-208 limits assumed): as the sequence (P08637 17-208 F176V limits assumed) above, with V160F counted along it
Protocol: as §1

[6] = molecular target: T4, PD-1 (on PD-1 Effector Cells of the Promega PD-1/PD-L1 Blockade Bioassay) (UniProt Q15116 25-288, limits assumed); experiment: cell-based or functional assay
[7] = molecular target: T5, PD-1 (target implied for the KD values of Table 32) (UniProt Q15116 fragment, limits assumed); experiment: method not described; 37° C. binding, 4 h
[8] = molecular target: T5, PD-1 (target implied for the KD values …); experiment: method not described; 37° C. binding, 1 h
[9] = molecular target: T5, PD-1 (target implied for the KD values …); experiment: method not described; 4° C. binding, 4 h
[10] = molecular target: T4, PD-1 (on PD-1 Effector Cells of the …); experiment: cell-based or functional assay; remark: listed apart in the source
[11] = molecular target: T6, IL-2/IL-15Rβγ (on cells) (UniProt P14784 27-551; P31785 23-369, limits assumed); experiment: cell-based or functional assay
T6 sequence (looked up) 1: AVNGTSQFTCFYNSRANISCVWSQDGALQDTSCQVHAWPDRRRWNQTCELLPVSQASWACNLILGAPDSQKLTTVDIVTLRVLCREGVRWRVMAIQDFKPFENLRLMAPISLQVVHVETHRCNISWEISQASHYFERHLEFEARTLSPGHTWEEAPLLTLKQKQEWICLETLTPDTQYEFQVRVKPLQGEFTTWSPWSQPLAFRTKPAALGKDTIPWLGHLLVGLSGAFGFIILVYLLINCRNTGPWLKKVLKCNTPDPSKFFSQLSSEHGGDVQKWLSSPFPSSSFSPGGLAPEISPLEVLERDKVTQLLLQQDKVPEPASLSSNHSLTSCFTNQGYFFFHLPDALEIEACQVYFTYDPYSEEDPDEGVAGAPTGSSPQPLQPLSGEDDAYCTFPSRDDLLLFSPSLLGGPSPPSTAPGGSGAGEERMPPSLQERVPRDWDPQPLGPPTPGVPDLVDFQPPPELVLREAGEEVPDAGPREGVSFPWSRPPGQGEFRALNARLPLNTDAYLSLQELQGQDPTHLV
T6 sequence (looked up) 2: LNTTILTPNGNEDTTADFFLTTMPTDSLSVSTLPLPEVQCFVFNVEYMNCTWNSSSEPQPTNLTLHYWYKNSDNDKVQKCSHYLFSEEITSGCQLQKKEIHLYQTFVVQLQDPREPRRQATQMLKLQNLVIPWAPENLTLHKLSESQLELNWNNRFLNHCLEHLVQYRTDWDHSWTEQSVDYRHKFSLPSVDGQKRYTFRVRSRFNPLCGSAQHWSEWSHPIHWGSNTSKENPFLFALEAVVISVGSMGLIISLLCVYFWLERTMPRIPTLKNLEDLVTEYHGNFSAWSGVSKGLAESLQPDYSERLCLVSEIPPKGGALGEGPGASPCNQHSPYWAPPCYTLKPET

[12] = molecular target: T6, IL-2/IL-15Rβγ (on cells); experiment: cell-based or functional assay; remark: listed apart in the source

| Binder | A/I (V158), affinity towards FcγRIIIa over affinity towards FcγRIIb [1] [ratio] | A/I (F158), affinity towards FcγRIIIa over affinity towards FcγRIIb [2] [ratio] | Kd [3] [nM] | Kd [4] [nM] | Kd [5] [nM] | further results |
| --- | --- | --- | --- | --- | --- | --- |
| B1 | 151 | 54.7 | 3680 | 24.4 | 67.3 |  |
| B2 | 60.9 | 20.9 | 2900 | 47.6 | 139 |  |
| B3 |  |  |  |  |  | EC50 [pM], PD-1/PD-L1 Blockade Bioassay (Promega) [6]: 1380 pM |
| B4 |  |  |  |  |  | Kd [7]: 0.21 nM; Kd [8]: 0.23 nM; Kd [9]: 0.26 nM; EC50 [pM], Promega blocking assay [10]: 2770 pM; Relative potency vs Keytruda, Promega blocking assay [10]: 63.6%; EC50 (read off the curve), % Ki-67+ CD8+ T cells [CD8+ T cells] [11]: ~20 nM; EC50 (read off the curve), % Ki-67+ NK cells [NK cells] [11]: ~3 nM |
| B5 |  |  |  |  |  | EC50 kit225 cells pM [12]: 21600 pM |
